The campaign covered roughly 94,000 compounds. About 6,200 (6.6%) were called active. Inconclusive results, whose numbers are uncertain, are shown with a selection of clear calls. The call rests on the fitted dose curve; in most records, active means well fitted inhibition curve with a large enough effect; inconclusive means small, poorly fitted or top-dose-only effect; inactive means flat fitted curve, though single readings scatter. Potencies beside an inconclusive call are fits to weak or partial responses and may not hold up.
Assay: Cytotoxic Profiling in HEK 293 Cell Line of Diverse Libraries Using Quantitative High-Throughput Screening; further: nearly all actives have a fitted effect of over 60% in size
Conditions: HEK 293 viability, ATP luminescence (CellTiter-Glo), 48-72 h; series mostly up to 115 µM
Summary of the method: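 Read-out: CellTiter-Glo ATP luminescence. Cells: HEK 293, 250 cells/well. Exposure: 48 or 72 hr, 37 degree Celsius.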
Potency means the concentration at half of the fitted maximal effect; tags describe the fitted curve by direction and shape.

| SMILES | Potency |
| --- | --- |
| Cc1cc(C)n(CCC(=O)N2CCC(Cc3noc(-c4ccccc4)n3)C2)n1 (stereo unspecified) | inconclusive: 79.4 µM [inhibitor, partial curve, poor fit] |
| Cc1ccc(C(=O)N2CCn3c(nnc3[C@@H]3C[C@@H](O)CN3C(C)C)C2)cn1 | inactive |
| O=C(Nc1cccc(F)c1)N1CCCC(CN2CCOCC2)CC1 (stereo unspecified) | inactive |
| Cc1ccc(NC(=O)Nc2ccc(C)n(CC(=O)NC(C)(C)C)c2=O)cc1 | inconclusive: 50.1 µM [inhibitor, partial curve, poor fit] |
| c1cncc(CN2CC[C@H](c3nc4ccccc4[nH]3)C2)c1 | inconclusive: 158 µM [inhibitor, single point] |
| COc1ccc(CCNC(=O)c2cn3cc(-c4cccc(C(F)(F)F)c4)sc3n2)cc1 | inconclusive: 44.7 µM [inhibitor, full curve, poor fit] |
| O=C(NCC(F)(F)F)c1ccc2oc(-c3ccncc3)nc2c1 | inconclusive: 50.1 µM [inhibitor, partial curve, poor fit] |
| CN1CCCN(C(=O)CCC[C@@H]2[C@H]3CCCN4CCC[C@@H](CN2Cc2ccccc2)[C@@H]34)CC1 | inconclusive: 50.1 µM [inhibitor, partial curve, poor fit] |
| CC(Cc1ccncc1)Nc1nccc(-c2cnn(-c3ccccc3)c2)n1 (stereo unspecified) | active: 39.8 µM |
| COc1ccccc1OCCC1CCN(C(=O)c2cccc(F)c2)C1 (stereo unspecified) | inconclusive: 56.2 µM [inhibitor, partial curve, poor fit] |
| COC1CCOC2(CCN(C(=O)c3ccc4ccccc4n3)CC2)C1 (stereo unspecified) | inactive |
| NC(=O)c1ccc(CC2CCN(C(=O)C3CC=CC3)CC2)cc1 | inconclusive: 44.7 µM [inhibitor, partial curve, poor fit] |
| Cc1ccc(NC(=O)Cn2c(C)cc3nc4n(c(=O)c32)CCC4)cc1Cl | inconclusive: 89.1 µM [inhibitor, single point] |
| CCNC(=O)N(C)Cc1cccc(N2CCN(C(=O)c3c(Cl)cccc3Cl)CC2)c1F | inconclusive: 56.2 µM [inhibitor, partial curve, poor fit] |
| O=C([C@@H]1C[C@H](F)CN1S(=O)(=O)Cc1ccc(Cl)cc1)N1CCc2ccccc2C1 | inconclusive: 20 µM [inhibitor, full curve, poor fit] |
| O=C(NCCc1ccc(Cl)cc1)C1CCc2nnc(CN[S+](=O)([O-])c3ccccc3Cl)n21 (stereo unspecified) | inconclusive: 79.4 µM [inhibitor, partial curve, poor fit] |
| COc1ccccc1-c1cc(C(=O)NCc2ccccc2F)c2cnn(C)c2n1 | inactive |
| O=C(NCc1cccs1)c1ccc2nnc(C3CC3)n2c1 | inactive |
| Cc1ccc(C2=NC3(CCN(C(=O)c4cccc5[nH]ccc45)CC3)ON2)cc1 | inconclusive: 89.1 µM [inhibitor, single point] |
| CC(C)CC(=O)N1CCC2(CC1)CC(Cc1cccc(F)c1)CCO2 (stereo unspecified) | inconclusive: 50.1 µM [inhibitor, partial curve, poor fit] |
| CN(Cc1ccc(OC(F)(F)F)cc1)Cc1ccc(-c2ccccc2)cc1 | inactive |
| COc1ccc(OC)c(CN2C[C@H]3[C@H](C2)[S+](=O)([O-])C(C)(C)C(=O)N3CC2CCOCC2)c1 | inactive |

| SMILES | Potency |
| --- | --- |
| COc1cccc(-c2cc(C3CCN(C(=O)Nc4ccc(Cl)cc4F)CC3)[nH]n2)c1 | inconclusive: 50.1 µM [inhibitor, partial curve, poor fit] |
| O=C(Nc1ccccc1)c1ccc(-c2cccc3c2CCNC3)o1 | inconclusive: 50.1 µM [inhibitor, partial curve, poor fit] |
| O=c1c2c(n(CCOc3ccccc3)n1-c1ccccc1)CN(Cc1nccs1)CC2 | inconclusive: 70.8 µM [inhibitor, partial curve, poor fit] |
| CCCCNC(=O)c1ccc2c(c1)N(C(=O)c1ccc(F)cc1)CC2 | inconclusive: 79.4 µM [inhibitor, single point] |
| COc1ccc2c(c1)CN(Cc1ccccc1Cl)CC[C@H]1COC(=O)N21 | inactive |
| COc1ccccc1OCCNC(=O)C1CCN(C(=O)N2CC3CC(C2)[C@H]2CCCC(=O)N2C3)CC1 (stereo partly specified) | inactive |
| O=C1NC2(CCCN(C(=O)c3ccccc3)C2)COc2ccccc21 (stereo unspecified) | inconclusive: 50.1 µM [inhibitor, partial curve, poor fit] |
| CN1C(=O)CO[C@H](c2ccc(NC(=O)NC(C)(C)C)cc2)[C@H]1CO | inactive |
| Cc1ccc(-c2nocc2CCC(=O)NCc2cccc(Br)c2)cc1 | inconclusive: 89.1 µM [inhibitor, single point] |
| COc1ccc(-c2cc3c(nc2OC)nc(CC2CC2)n3C)cc1 | inconclusive: 89.1 µM [inhibitor, partial curve, poor fit] |
| O=C1CC2(CCN(C(=O)C3CCCN(C(=O)c4ccc(Cl)nc4)C3)CC2)Oc2ccccc2N1 (stereo unspecified) | inactive |
| CCC(=O)N1c2ccccc2CC1c1nc(C(C)C)no1 (stereo unspecified) | inactive |
| CNC(=O)c1ccc(CN2CCCC(Nc3ccc(F)cc3)C2)o1 (stereo unspecified) | inactive |
| O=C(O)c1cccc(-c2ccccn2)c1 | inactive |
| Cc1oc(-c2cccc(Cl)c2)nc1CN1CCN(C(=O)N(C)C)CC1 | inconclusive: 89.1 µM [inhibitor, single point] |
| CN(C)c1ccc(C(=O)NC2CCN(c3cc(-c4cccs4)[nH]n3)C2)cc1 (stereo unspecified) | inconclusive: 89.1 µM [inhibitor, single point] |
| Cc1cccc(NC(=O)N2CCC(Oc3ccc(-c4noc(C)n4)cc3)C2)c1 (stereo unspecified) | inconclusive: 44.7 µM [inhibitor, partial curve, poor fit] |
| Cc1ccc2nc([C@H]3CCN(C4CCC4)C3)[nH]c2c1 | inconclusive: 141 µM [inhibitor, partial curve, poor fit] |
| Cc1nn(-c2ccccc2)c2c1C(C(C)C)N(C1CCN(C(=O)Cc3ccccn3)C1)C2=O (stereo unspecified) | inconclusive: 89.1 µM [inhibitor, single point] |
| CCCc1nnc(C[C@@H]2C[C@@H](C(C)C)[C@H](CN3CCC(CO)CC3)C=C2C)o1 | inconclusive: 126 µM [inhibitor, single point] |
| O=C(NC1CCN(c2cc(-c3ccccc3)[nH]n2)C1)c1ccccc1F (stereo unspecified) | inconclusive: 17.8 µM [inhibitor, full curve, poor fit] |
| COc1ccc(C(=O)N2CCC3(CC2)N=C(c2ccc(C)cc2)NO3)cc1 | inconclusive: 89.1 µM [inhibitor, single point] |

| SMILES | Potency |
| --- | --- |
| O=C(c1nc(-c2ccsc2)c2ccccn12)N1CCN(c2ncccn2)CC1 | inconclusive: 79.4 µM [inhibitor, partial curve, poor fit] |
| CCOC(=O)C1(Cc2ccccc2F)CCCN(C(=O)C(=O)c2ccco2)C1 (stereo unspecified) | inconclusive: 79.4 µM [inhibitor, partial curve, poor fit] |
| O=C1CC(c2ccccc2)N(Cc2ccncc2)CCCN(C(=O)c2cccs2)CCN1 (stereo unspecified) | inactive |
| O=C1[C@H]2CN(Cc3ccc(Br)cc3)C[C@H]2C(=O)N1CCc1ccccc1 | inconclusive: 89.1 µM [inhibitor, partial curve, poor fit] |
| CS(=O)(=O)N1CCC(N2C(=O)C3(CCCCC3)C2c2ccccc2)CC1 (stereo unspecified) | inactive |
| COc1cccc(NC(=O)C2(C)CCCc3cnc(N(C)C)nc32)c1 (stereo unspecified) | inconclusive: 100 µM [inhibitor, partial curve] |
| C#CCNC(=O)c1nc(C(C)(C)C)c2ccccn12 | inconclusive: 79.4 µM [inhibitor, partial curve] |
| COc1ccc(Nc2ccnc(N3CCCC(C(=O)NCc4ccccc4)C3)n2)cc1 (stereo unspecified) | active: 39.8 µM |
| Cc1nn(-c2ccccc2)c2c1C(C(C)C)N(C1CN(C(=O)c3ccccc3F)C1)C2=O (stereo unspecified) | inconclusive: 39.8 µM [inhibitor, partial curve, poor fit] |
| CNC(=O)[C@H]1C[C@]2(CCCCN(CCOC)C2=O)N(C(=O)c2cccc(OC)c2)[C@H]1c1ccccc1 | inconclusive: 56.2 µM [inhibitor, partial curve, poor fit] |
| Cc1ccc(C(=O)N2CCC(c3noc(C4CC4)n3)C2)cn1 (stereo unspecified) | inactive |
| COCCCNC(=O)c1cc(-c2ccc(Cl)cc2Cl)c2nncn2n1 | inactive |
| COCCc1noc(-c2ccccc2OC2CN(S(=O)(=O)C(C)C)C2)n1 | inactive |
| COc1ccc(C(=O)N2CCn3c(nn(-c4ccc([N+](=O)[O-])cc4)c3=O)C2)cc1 | inconclusive: 50.1 µM [inhibitor, partial curve, poor fit] |
| COc1ccc(C(=O)N2CCN(C(=O)c3nnn4c3COC(c3ccc(Cl)cc3)C4)CC2)cc1F (stereo unspecified) | inconclusive: 20 µM [inhibitor, full curve] |
| c1cc(-c2cc3c(ccn3Cc3ccncc3)c(N3CCOCC3)n2)cc(N2CCOCC2)c1 | inconclusive: 50.1 µM [inhibitor, partial curve, poor fit] |
| CCn1nccc1C(=O)N1C[C@@H](Oc2cccnc2)C[C@H]1C(=O)NC1CC1 | inactive |
| Cn1nc(C(=O)N2CCC3(CC2)CC(CO)N(C(=O)c2ccccc2)C3)c2ccccc21 (stereo unspecified) | inactive |
| O=C(c1ccc2oc(-c3ccccn3)nc2c1)N1CCOCC1 | inactive |
| Cc1cnn(CCC(=O)N2C[C@@H](CO)[C@H](c3ccncc3)C2)c1 | inactive |
| CNC(=O)[C@@H]1CNC[C@H]1c1nc(COC)no1 | inactive |
| COc1ccc(-c2ccc3c(n2)CN(C)C(=O)CO3)cc1 | inconclusive: 100 µM [inhibitor, partial curve] |

Reference: PubChem BioAssay AID1345083 (National Center for Advancing Translational Sciences (NCATS), 2018)
